Assay results reported in ChEMBL document CHEMBL3885881, “DrugMatrix”.

Organism: Rattus norvegicus
Assay: DrugMatrix - Regimen: Daily Repeat
Type: toxicity, organism-based, Sprague-Dawley
Set-up: regimen Daily Repeat, gender Male, age 6-8 weeks
Conditions: in vivo, po, 0 mg/kg, 120 h, tissue Plasma, route oral GAVAGE, dose level Control, time 5 day, vehicle .5 % CMC

`O=c1cc(-c2ccccc2)oc2ccc3ccccc3c12` [BETA-NAPHTHOFLAVONE] was tested, and the “TOTAL BILIRUBIN” value was 0.18 mg/dL [study A] and 0.55 mg/dL [study B].
In the case of `Clc1cc2c(cc1Cl)Oc1cc(Cl)c(Cl)cc1O2` [2,3,7,8-TETRACHLORODIBENZO-P-DIOXIN], the “TOTAL BILIRUBIN” value is reported as 0.18 mg/dL [study A] and 0.55 mg/dL [study B].

A number of entries come with more than one value. Only these are listed. The source may hold further records. The records of an entry are repeated measurements in other runs, samples, wells, individuals or studies. Marks in square brackets tell the records apart. Letters hold for one entry only.
